Test results reported in PubChem BioAssay AID493208 (National Center for Advancing Translational Sciences (NCATS), 2011).
Screen size: about 44,000 compounds; about 340 (0.77%) were called active. Not shown: some 5% with an inconclusive outcome. Calls come from the whole dose curve; as a rule, active = well fitted inhibition curve with a large enough effect; inconclusive = small, poorly fitted or top-dose-only effect; inactive = flat fitted curve, though single readings scatter. Some of the results follow.

assay: Acumen qHTS Assay for Inhibitors of the mTORC1 Signaling Pathway in MEF (Tsc2-/-, p53-/-) Cells: Sytravon; details: phospho-rpS6 immunofluorescence/PI, 24 h; series mostly up to 38.3 µM; activity change, negative = inhibition: at the top concentration; note: nearly all actives have a fitted effect of over 50% in size;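 for activity change, negative = inhibition: plate controls were DMSO for no effect and rapamycin for full effect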
How it was run: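 Read-out: phospho-S6 Alexa-488 intensity over PI intensity per well, scored as % active cells using thresholds from rapamycin (7.5 nM) and DMSO controls. Tsc2-/-, p53-/- MEFs exposed to compound for 24 h; PI cell count recorded as viability.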
Potency is the fitted concentration of half-maximal effect.

Activity change, negative = inhibition, inactive:
O=C(CN1CCCN(Cc2ccc(F)cc2)S1(=O)=O)NCc1ccccc1Cl 1.86%, CCn1cc(C(=O)NCc2ccc(C)cc2)c(=O)c2cc(S(=O)(=O)N3CCc4ccccc4C3)ccc21 -0.595%, CCC12CN3CC(CC)(CN(C1)C3c1cc(Br)ccc1OC)C2=O (configuration not stated) 0.404%, Cc1nc(-c2ccc(S(=O)(=O)N3CCN(c4ccc(F)cc4)CC3)cc2)co1 -9.23%, CCc1ccc(N(C)S(=O)(=O)c2ccc3[nH]cc(C(=O)NCC4CCCO4)c(=O)c3c2)cc1 (configuration not stated) 12%, N#Cc1ccccc1NC(=O)c1cnc(N2CCOCC2)c2ccccc12 0.669%, CCC(=O)N1CCc2cc(Br)cc(S(=O)(=O)CCC(=O)NCc3ccc(F)cc3)c21 -2.2%, Cc1ccc(Cn2c(CNC(=O)c3cccc(C)c3)nc3ccccc32)cc1 -6.19%, COc1ccccc1-c1nnc(C2CCN(C(=O)c3ccc(Cl)cc3)CC2)o1 -17.2%, COc1cccc2c1Oc1ncccc1N(C(=O)CCC(=O)NCc1ccc(C)cc1)C2 -0.362%, CCOc1ccccc1NC(=O)Cn1c2ncccc2c(=O)n1-c1ccc(C)c(C)c1 6.52%, CCc1ccc2nc(N3CCN(C(=O)C4CC4)CC3)sc2c1 -13.2%, Cc1oc(-c2ccc(C(=O)Nc3ccccc3F)cc2)nc1COc1ccccc1 3.2%, COc1ccc(C)cc1NC(=O)CSc1nc(=O)n(Cc2ccccn2)c2c1CCC2 0.966%, Cc1oc2c(c(C)cc3oc(=O)c(CC(=O)NCc4ccc(F)cc4)c(C)c32)c1C 3.27%, CC(=O)N1CCCc2cc(S(=O)(=O)Nc3ccc(C)c(F)c3)ccc21 0.307%, CCOc1ccc(NC(=O)CN2C(=O)C3(SCC(=O)N3c3ccc(F)cc3)c3ccccc32)cc1 (configuration not stated) 3.52%, COc1ccc(C2C(=O)N(C3CCC(C)CC3)CC(=O)N2CCC2=CCCCC2)cc1OC (configuration not stated) 10.2%, Cc1cccc(C)c1NC(=O)CN1C(=O)c2cccc3cccc1c23 -3.4%, COc1ccc(CNc2oc(-c3ccc(COc4ccc(OC)cc4)o3)nc2C#N)cc1 -21.3%, CC(=O)N1CCc2cc(S(=O)(=O)NC(Cc3ccccc3)C(=O)Nc3ccc(Cl)cc3)ccc21 (configuration not stated) 0.626%, Cc1cc(C)c(OCC(=O)N(Cc2cccc(F)c2)Cc2ccco2)c(C)c1 -3.21%, CCOC(=O)c1ccc(NS(=O)(=O)c2ccc3[nH]c4c(c3c2)CCCCC4)cc1 1.43%, CCCCN(C)C(=O)Cn1c(SCC(=O)Nc2ccc(C)c(C)c2)nc2ccccc21 5.3%, CCOC(=O)C1(C)C=C(Nc2ccc(C(=O)O)cc2)C(=O)N1c1ccc(C(=O)O)cc1 (configuration not stated) -1.96%, Cc1nc2ccccc2n1CCc1nc2c3ccccc3nc(SCc3ccc(F)cc3)n2n1 -4.31%, Cc1cccc(Nc2c3c(nc4nncn24)CCC3)c1C 1.89%, COc1ccc2c(c1)c1c(c(=O)n(-c3ccccc3C)c(=O)n1Cc1c(F)cccc1Cl)n2C 2.13%, CCOC(=O)c1c(C)oc2nc(C)nc(NCC3CCN(Cc4cccc(Cl)c4)CC3)c12 -9.02%, Cc1cccc(NC(=O)C2CCCN(c3nc4ccccc4s3)C2)c1C (configuration not stated) -3.04%, CCOC(=O)C1CCCN(C(=O)Cn2nc(CC)n3c(cc4occc43)c2=O)C1 (configuration not stated) -7.66%, CCOc1ccccc1NC(=O)CN1C=NS(=O)(=O)c2ccccc21 0.166%, Cc1ccc(CCNC(=O)c2ccc(CS(=O)(=O)Cc3ccccc3F)o2)cc1 -1.69%, Cc1ccc(NC(=O)CCNS(=O)(=O)c2ccc3c(c2)CCCC(=O)N3)cc1 4.76%, COc1cccc2cc(-c3nc(-c4ccc(C)cc4)c(C)s3)c(=O)oc12 -5.57%, Cc1ccc(C(=O)Nc2ccc3nc(N4CCCCC4)cc(C)c3c2)cc1F -0.87%, CC(=O)c1ccc(N2C(=O)N(Cc3cc(C)ccc3C)c3ccccc3S2(=O)=O)cc1 0.527%, O=S(=O)(Nc1ccc(Cl)cc1)c1cccc(S(=O)(=O)c2ccc(Cl)c(Cl)c2)c1 -2.68%, Cc1cc(Nc2ccc(F)cc2)nc(-n2nc(C)cc2C)n1 -0.475%, CCc1cccc(C)c1NC(=O)CCn1nc(C)c2c(C)n(-c3ccccc3)nc2c1=O -1.52%, CC1=C(C(=O)Nc2cccc(C(F)(F)F)c2)C(c2ccccc2)n2ncnc2N1 (configuration not stated) 0.473%, COc1ccc(NC(=O)Cc2noc3ccc(C)cc23)cc1Cl -26.2%, COc1ccc(NC(=O)Cn2c(=O)n(-c3ccc(C)c(C)c3)c(=O)c3c(C)c(C)sc32)cc1 28.5%, COc1cccc(N2CC(NC(=O)C3CC3)CC2=O)c1 (configuration not stated) 3%, Cc1ccc(CCNC(=O)c2ccc(NC(=O)N3CCSc4ccccc43)cc2)cc1 0.833%, Cc1ccc(C)c(N2CCN(c3nc4c(S(=O)(=O)c5ccccc5)nnn4c4ccc(Cl)cc34)CC2)c1 -0.455%

Potency, active:
Cc1ccc(C)c(N2CCN(CCCNC(=O)Nc3ccc(Cl)cc3)CC2)c1 18.5 µM
